Laboratory results: publication PMC3084709, “TMEFF2 Is a PDGF-AA Binding Protein with Methylation-Associated Gene Silencing in Multiple Cancer Types Including Glioma” (PLoS ONE, 2011)
These are yes or no findings as the source states them, for the method shown. For some of these results: Binding seen in cells or lysates may run through a third protein. Some entries that bind do so weakly or less than the wild type. For some of these results: Tags and fused reporters may be left off the sequences shown. Values belong to the molecule of their own block, whether it stands above or below them.

The chains behind the UniProt entries cited, without tags or fusion partners. Residues count along the entry.
UniProt P21860, residues 20-643: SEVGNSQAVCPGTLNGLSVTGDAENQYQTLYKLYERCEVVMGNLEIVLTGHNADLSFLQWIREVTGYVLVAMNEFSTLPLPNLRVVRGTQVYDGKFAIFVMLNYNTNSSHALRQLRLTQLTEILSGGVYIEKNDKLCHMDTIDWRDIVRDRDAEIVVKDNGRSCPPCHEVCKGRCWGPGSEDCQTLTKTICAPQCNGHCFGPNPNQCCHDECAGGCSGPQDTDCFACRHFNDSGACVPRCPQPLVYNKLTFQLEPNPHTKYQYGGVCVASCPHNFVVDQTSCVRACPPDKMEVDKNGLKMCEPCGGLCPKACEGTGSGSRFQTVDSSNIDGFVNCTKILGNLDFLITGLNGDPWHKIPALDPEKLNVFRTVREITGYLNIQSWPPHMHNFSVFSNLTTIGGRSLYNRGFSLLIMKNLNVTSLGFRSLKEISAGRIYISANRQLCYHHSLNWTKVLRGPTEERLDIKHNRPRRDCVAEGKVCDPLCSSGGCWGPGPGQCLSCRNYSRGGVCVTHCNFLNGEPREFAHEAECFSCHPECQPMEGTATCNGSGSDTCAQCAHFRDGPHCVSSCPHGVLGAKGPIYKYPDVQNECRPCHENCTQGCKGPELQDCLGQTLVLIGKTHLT

Columns and labels:
[1] = target: T1, extracellular domain (ECD) of TMEFF2 fused to a FLAG tag (TECD-FLAG) (human) (UniProt Q9UIK5); experiment: ELISA; TMEFF2 coat format: MaxiSorp plates coated with 1 µg/ml TECD-FLAG in 50 mM carbonate buffer pH 9.6 overnight at 4°C; serially diluted PDGF-AA, AB, BB or Fc-fusion proteins in PBS with 0.5% BSA, 0.05% polysorbate 20, 2 hours; bound PDGF detected with biotinylated anti-PDGF-A or anti-PDGF-B and streptavidin-HRP, bound Fc fusions with anti-human Fc-HRP; both purified
T1 sequence (chain, biotin (only in the ForteBio experiment, biotinylated TMEFF2-FLAG)): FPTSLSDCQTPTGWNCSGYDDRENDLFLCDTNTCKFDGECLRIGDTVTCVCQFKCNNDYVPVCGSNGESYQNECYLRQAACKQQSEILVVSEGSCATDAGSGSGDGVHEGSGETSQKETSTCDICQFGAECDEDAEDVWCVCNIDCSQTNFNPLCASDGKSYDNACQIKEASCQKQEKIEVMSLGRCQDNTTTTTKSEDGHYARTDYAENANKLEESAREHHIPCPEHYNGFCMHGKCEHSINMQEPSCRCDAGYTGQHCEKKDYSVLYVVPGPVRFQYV

[2] = target: T1, extracellular domain (ECD) of TMEFF2 fused to a FLAG tag (TECD-FLAG) (human); experiment: BLI; label free ForteBio platform; biotinylated TMEFF2-FLAG immobilized on the streptavidin-coated sensor, PDGF ligands in solution; data not shown; both purified
[3] = target: T2, gD-tagged full-length TMEFF2 (human) (UniProt Q9UIK5); experiment: co-IP; 293 cells transfected with TMEFF2 constructs; 5 µg/ml PDGF-AA or AB in fresh medium for 30 minutes, washed with ice cold PBS, lysed (50 mM Tris pH 8.0, 150 mM NaCl, 1 mM EDTA, 1% NP-40); immunoprecipitated with anti-TMEFF2 pAb or anti-gD mAb; blotted with anti-PDGF-A; only the binder …
T2 sequence: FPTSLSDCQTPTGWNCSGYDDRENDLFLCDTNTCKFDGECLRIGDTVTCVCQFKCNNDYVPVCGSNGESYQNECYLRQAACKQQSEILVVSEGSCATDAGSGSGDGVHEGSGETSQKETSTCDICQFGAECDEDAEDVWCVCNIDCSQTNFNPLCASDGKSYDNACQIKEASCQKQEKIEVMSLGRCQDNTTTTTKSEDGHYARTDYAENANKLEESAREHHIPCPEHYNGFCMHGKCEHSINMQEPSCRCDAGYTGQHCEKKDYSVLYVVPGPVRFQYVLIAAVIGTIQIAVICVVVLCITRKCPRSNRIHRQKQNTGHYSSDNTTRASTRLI

[4] = target: T3, full-length TMEFF2 (TMEFF2-FL) (human) (UniProt Q9UIK5); experiment: as above
T3 sequence: T2 sequence

binding [1]: no binding
Molecule: HER2 extracellular domain fused to hFcγ (from UniProt P04626 23-652) (Fc fusion)

binding [2]: binds | binding [1]: binds | binding [3]: binds | binding [4]: binds
Molecule: recombinant human PDGF-AA (from UniProt P04085 87-211) (ligand)

binding [1]: no binding
B2: HER4 extracellular domain fused to hFcγ (Fc fusion, UniProt Q15303 26-651)
chain: QSVCAGTENKLSSLSDLEQQYRALRKYYENCEVVMGNLEITSIEHNRDLSFLRSVREVTGYVLVALNQFRYLPLENLRIIRGTKLYEDRYALAIFLNYRKDGNFGLQELGLKNLTEILNGGVYVDQNKFLCYADTIHWQDIVRNPWPSNLTLVSTNGSSGCGRCHKSCTGRCWGPTENHCQTLTRTVCAEQCDGRCYGPYVSDCCHRECAGGCSGPKDTDCFACMNFNDSGACVTQCPQTFVYNPTTFQLEHNFNAKYTYGAFCVKKCPHNFVVDSSSCVRACPSSKMEVEENGIKMCKPCTDICPKACDGIGTGSLMSAQTVDSSNIDKFINCTKINGNLIFLVTGIHGDPYNAIEAIDPEKLNVFRTVREITGFLNIQSWPPNMTDFSVFSNLVTIGGRVLYSGLSLLILKQQGITSLQFQSLKEISAGNIYITDNSNLCYYHTINWTTLFSTINQRIVIRDNRKAENCTAEGMVCNHLCSSDGCWGPGPDQCLSCRRFSRGRICIESCNLYDGEFREFENGSICVECDPQCEKMEDGLLTCHGPGPDNCTKCSHFKDGPNCVEKCPDGLQGANSFIFKYADPDRECHPCHPNCTQGCNGPTSHDCIYYPWTGHSTLPQHARTP

The remaining lines, values behind:

Molecule: EGFR extracellular domain fused to hFcγ (from UniProt P00533 25-645) (Fc fusion)
binding [1]: no binding

Molecule: HER3 extracellular domain fused to hFcγ (from UniProt P21860 20-643) (Fc fusion)
binding [1]: no binding

Molecule: recombinant human PDGF-AB (from UniProt P04085 87-211; P01127 82-190) (ligand)
binding [4]: no binding (tested: 5 µg/ml PDGF-AB in the medium)

B1: extracellular domain (ECD) of TMEFF2 fused to the Fc portion of the human immunoglobulin gamma (TECD-Fc) (Fc fusion, UniProt Q9UIK5-1 41-320)
chain: T1 sequence (chain, biotin (only in the ForteBio experiment, biotinylated TMEFF2-FLAG))
binding [1]: no binding
